{
  "source": "PubChem BioAssay AID504339",
  "about": "(National Center for Advancing Translational Sciences (NCATS), 2011)",
  "note": "In all, about 390,000 compounds went through this assay and about 17,000 (4.4%) were called active. The inconclusive results got no clear call from the source; some entries with a clear call stand among them for comparison. Calls follow the shape of the dose curve; as a rule, active = well fitted inhibition curve with a large enough effect; inconclusive = small, poorly fitted or top-dose-only effect; inactive = no such curve, though single readings can be large or run the other way. Potencies beside an inconclusive call are fits to weak or partial responses and may not hold up. Some structures have more than one record in an assay (separate samples or runs), and their calls can disagree. % is scaled to controls: 0 for no effect and ±100 for the full control effect; potency is read from the fitted curve at half-maximal effect; tags tell the direction and shape of the fitted curve.",
  "data": [
    {"biological_target": "Lysine-specific demethylase 4A (Homo sapiens) (UniProt O75164)", "sequence (O75164 whole entry, looked up, the tested form may be a part)": "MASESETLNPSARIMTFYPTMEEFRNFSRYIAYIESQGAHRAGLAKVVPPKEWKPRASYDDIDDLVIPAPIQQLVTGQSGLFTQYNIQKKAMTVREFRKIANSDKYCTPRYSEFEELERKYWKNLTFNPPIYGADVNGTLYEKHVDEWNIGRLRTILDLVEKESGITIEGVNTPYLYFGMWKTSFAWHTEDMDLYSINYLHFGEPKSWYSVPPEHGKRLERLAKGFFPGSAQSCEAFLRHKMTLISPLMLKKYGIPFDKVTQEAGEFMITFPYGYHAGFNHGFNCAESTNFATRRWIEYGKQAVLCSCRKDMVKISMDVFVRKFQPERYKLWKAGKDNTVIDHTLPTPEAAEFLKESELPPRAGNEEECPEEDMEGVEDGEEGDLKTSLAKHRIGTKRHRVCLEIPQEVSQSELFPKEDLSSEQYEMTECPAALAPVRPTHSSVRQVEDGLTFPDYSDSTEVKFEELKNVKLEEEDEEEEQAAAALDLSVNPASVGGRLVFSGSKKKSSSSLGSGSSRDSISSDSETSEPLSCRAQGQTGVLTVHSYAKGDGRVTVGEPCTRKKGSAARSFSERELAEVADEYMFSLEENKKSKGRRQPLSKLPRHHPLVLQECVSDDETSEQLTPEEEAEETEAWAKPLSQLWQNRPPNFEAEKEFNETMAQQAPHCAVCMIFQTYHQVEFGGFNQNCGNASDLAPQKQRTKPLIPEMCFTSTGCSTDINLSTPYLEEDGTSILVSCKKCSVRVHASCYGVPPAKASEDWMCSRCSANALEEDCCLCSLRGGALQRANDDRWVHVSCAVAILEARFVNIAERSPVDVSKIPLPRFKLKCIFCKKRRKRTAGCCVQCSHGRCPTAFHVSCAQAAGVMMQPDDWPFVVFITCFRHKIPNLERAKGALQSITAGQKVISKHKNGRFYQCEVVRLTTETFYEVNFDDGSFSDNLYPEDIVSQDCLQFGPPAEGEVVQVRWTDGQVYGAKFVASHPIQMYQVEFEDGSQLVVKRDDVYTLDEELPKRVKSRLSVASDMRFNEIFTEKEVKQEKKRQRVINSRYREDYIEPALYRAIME", "assay": "qHTS Assay for Inhibitors of JMJD2A-Tudor Domain; also: nearly all actives have a fitted effect of over 50% in size", "conditions": "AlphaScreen JMJD2A-Tudor / H3K4me3 peptide binding; activity change, negative = inhibition: at 114 µM (top of the series)", "values": [
      {"compound": "CN(Cc1ccc(OC(F)F)cc1)C(=O)c1ccc2c(=O)n3c(nc2c1)CCC3", "Potency": "inactive"},
      {"compound": "Cc1ccc(NC(=O)c2ccc(NCCN)c([N+](=O)[O-])c2)cc1", "Potency": "inactive"},
      {"compound": "O=C(CNCc1ccccc1)NCCCN1CCCC1=O", "Potency": "active: 2 µM"},
      {"compound": "CN1CCN(C(=O)c2ccc3c(Cl)c4c(nc3c2)CCCC4)CC1", "Potency": "inactive"},
      {"compound": "CCC(C(=O)O)N1C(=O)/C(=C/c2cccn2C)SC1=S", "note": "(stereo unspecified)", "Potency": "inactive"},
      {"compound": "CCN(CC)S(=O)(=O)c1ccc(OC)c(NC(=O)c2cccc([N+](=O)[O-])c2C)c1", "Potency": "inconclusive: 79.4 µM [inhibitor, partial curve]"},
      {"compound": "CC(C(=O)Nc1ccccc1C(F)(F)F)N1CCN(C)CC1", "note": "(stereo unspecified)", "Potency": "active: 25.1 µM"},
      {"compound": "CCOC(=O)C1CCCN(C2CC(=O)N(c3cccc(C(F)(F)F)c3)C2=O)C1", "note": "(stereo unspecified)", "Potency": "active: 56.2 µM"},
      {"compound": "CN(C(=O)CSc1nc2ccc(NC(=O)c3cccc(F)c3)cc2s1)c1ccccc1", "Potency": "inactive"},
      {"compound": "CCOC(=O)c1cc(-c2ccccc2C)n(CC2CC(c3cccc([N+](=O)[O-])c3)=NO2)n1", "note": "(stereo unspecified)", "Potency": "inconclusive: 22.4 µM [inhibitor, full curve]"},
      {"compound": "CCOc1ccc(CNC(=O)c2ccc3c(Cl)c4c(nc3c2)CCCC4)cc1", "Potency": "inactive"},
      {"compound": "Cc1cccc(N2CCN(C(=O)NCc3ccc(F)cc3)CC2)c1C", "Potency": "inconclusive: 17.8 µM [inhibitor, single point]"},
      {"compound": "Cc1cccc(-n2c(C)cc(/C=N/n3cnnc3)c2C)c1", "Potency": "inconclusive: 56.2 µM [inhibitor, partial curve]"},
      {"compound": "CCCC1(c2ccccc2)NC(=O)N(CC(=O)N(C)Cc2c(F)cccc2Cl)C1=O", "note": "(stereo unspecified)", "Potency": "active: 25.1 µM"},
      {"compound": "CCc1ccc2oc(-c3cc(N=Cc4cccc(OC)c4O)ccc3O)nc2c1", "Potency": "inconclusive: 22.4 µM [inhibitor, full curve]"},
      {"compound": "CCOC(=O)N1CCN(C(=O)c2ccc3c(c2)N(C)C(=O)/C(=C\\c2ccc(OCC)c(OC)c2)S3)CC1", "Potency": "inconclusive: 56.2 µM [inhibitor, partial curve]"},
      {"compound": "COc1ccc(CCN(C)c2ccc(S(=O)(=O)N3CCCC3)cc2[N+](=O)[O-])cc1OC", "Potency": "inconclusive: 39.8 µM [inhibitor, partial curve]"},
      {"compound": "COC(=O)c1cccc(Cn2nc(C)c([N+](=O)[O-])c2C)c1", "Potency": "active: 50.1 µM"},
      {"compound": "O=C1/C(=C\\c2cccs2)SC(=S)N1C1CCS(=O)(=O)C1", "note": "(stereo unspecified)", "Potency": "inconclusive: 56.2 µM [inhibitor, partial curve]"},
      {"compound": "COc1ccc(N2CCN(C(=O)CSc3ncnc4scc(-c5ccc(C)cc5)c34)CC2)cc1", "Potency": "inconclusive: 8.91 µM [inhibitor, full curve]"},
      {"compound": "COc1ccc(NC(=O)c2cc(Cl)ccc2NC(=O)c2ccco2)c(OC)c1", "Potency": "inconclusive: 79.4 µM [inhibitor, single point]"},
      {"compound": "CC1(C)CC(=O)C2=C(C1)Nc1ccccc1N(C(=O)C1CC1)C2c1ccco1", "note": "(stereo unspecified)", "Potency": "inconclusive: 25.1 µM [inhibitor, single point]"},
      {"compound": "COc1cc(C(C)=O)ccc1OCC(O)CN(CCO)Cc1ccccc1", "note": "(stereo unspecified)", "Potency": "inactive"},
      {"compound": "O=C(c1ccc2ccccc2n1)N1CCN(c2ccccc2O)CC1", "Potency": "inactive"},
      {"compound": "C=CCN(c1ccc(C(=O)Nc2ccc(NC(C)=O)cc2)cc1)S(C)(=O)=O", "Potency": "active: 14.1 µM"},
      {"compound": "CNCCCOc1ccc(C)cc1Br", "Potency": "active: 3.16 µM"},
      {"compound": "COc1ccc(C(=O)Nc2ccccc2C(=O)N2CCCCC2C)cc1", "note": "(stereo unspecified)", "Potency": "inactive"},
      {"compound": "Cc1[nH]c2ccc(C(=O)N3CCN(c4ccccc4F)CC3)cc2c1C", "Potency": "active: 89.1 µM"},
      {"compound": "Cn1c(C(=O)N[C@@H](C(=O)O)c2ccccc2)cc2cc(Cl)ccc21", "Potency": "inactive"},
      {"compound": "COc1cc(OC)c2c(c1C(CCN1CCCC(C)C1)c1ccc(N(C)C)cc1)OC(=O)CC2c1ccc(N(C)C)cc1", "note": "(stereo unspecified)", "Potency": "active: 8.91 µM"},
      {"compound": "CCn1c(=O)c(C(=O)CN2CCN(S(=O)(=O)c3cc(C)ccc3C)CC2)c(N)n(Cc2ccccc2)c1=O", "Potency": "inconclusive: 70.8 µM [inhibitor, single point]"},
      {"compound": "N#Cc1c(-c2ccccc2)nc(SCC(=O)Nc2nnc(C(F)(F)F)s2)[nH]c1=O", "Potency": "inactive"},
      {"compound": "C=CCn1c(SCC(=O)N2CC(C)OC(C)C2)nnc1-c1ccncc1", "note": "(stereo unspecified)", "Potency": "inactive"},
      {"compound": "CC(=O)c1cccc(OCc2cc(C(=O)N(C)Cc3ccc(C)o3)no2)c1", "Potency": "active: 79.4 µM"},
      {"compound": "O=C(NC1CCCN(Cc2ccc(Cl)cc2)C1)C1CCC1", "note": "(stereo unspecified)", "Potency": "inactive"},
      {"compound": "O=C(Cn1c(=O)n(Cc2ccco2)c(=O)c2c3c(sc21)CCCCC3)c1ccccc1", "Potency": "inconclusive: 79.4 µM [inhibitor, partial curve]"},
      {"compound": "CC[C@@H](C)[C@@H]1CN([C@@H](C)CN2CCC[C@H]2CN2C(N)=NC[C@@H]2Cc2ccccc2)C(=N)N1CCc1ccc(Cl)c(Cl)c1", "Potency": "inconclusive: 56.2 µM [inhibitor, partial curve]"},
      {"compound": "O=C1CSc2ccc(C(=O)Nc3cccc(S(=O)(=O)Nc4ccc(Br)cc4)c3)cc2N1", "Potency": "inconclusive: 31.6 µM [inhibitor, full curve]"},
      {"compound": "C=CCNc1nc(Nc2ccc([N+](=O)[O-])cc2)nc(N2CCCC2)n1", "Potency": "inconclusive: 22.4 µM [inhibitor, partial curve]"},
      {"compound": "CCC(=O)N1c2ccccc2NC2=C(C(=O)CCC2)C1c1ccc(N(C)C)cc1", "note": "(stereo unspecified)", "Potency": "inactive"},
      {"compound": "CCCN(CCC)C(=O)c1ccc2c(c1)S(=O)(=O)c1ccccc1C2=O", "Potency": "inconclusive: 100 µM [inhibitor, partial curve]"},
      {"compound": "O=C(Nc1ccc(Cl)cc1)C1c2cccc[n+]2CC(=O)N1Cc1ccc2c(c1)OCO2", "note": "(stereo unspecified)", "Potency": "inconclusive: 56.2 µM [inhibitor, partial curve]"},
      {"compound": "CCOc1cc(C(c2c(C)[nH]n(-c3ccccc3)c2=O)c2c(C)[nH]n(-c3ccccc3)c2=O)ccc1O", "Potency": "active: 50.1 µM"},
      {"compound": "O=C(NN=Cc1ccccc1O)c1cccc([N+](=O)[O-])c1", "Potency": "inactive"},
      {"compound": "CCCCC(=O)OCC(=O)Nc1ccc(SC(F)F)cc1", "Potency": "inactive"},
      {"compound": "Cc1ccc(-c2csc(NC(=O)C3CC(=O)N(Cc4ccco4)C3)n2)cc1", "note": "(stereo unspecified)", "Potency": "inconclusive: 56.2 µM [inhibitor, partial curve]"},
      {"compound": "CC(O)CNCCNCc1c(OCc2ccccc2)ccc2ccccc12", "note": "(stereo unspecified)", "Potency": "inconclusive: 35.5 µM [inhibitor, partial curve, poor fit]"},
      {"compound": "COc1ccc(C2c3cc(OC)c(OC)cc3CCN2C(=O)c2cccc([N+](=O)[O-])c2)cc1OC", "note": "(stereo unspecified)", "Potency": "inconclusive: 56.2 µM [inhibitor, partial curve]"},
      {"compound": "CCN(CC)c1ccc(NC(=O)c2c(C)nn(-c3ccc(F)cc3)c2-n2cccc2)c(C)c1", "Potency": "active: 31.6 µM"},
      {"compound": "COc1ccc(OC)c(NC(=O)c2c(NCc3cccs3)sc3c2CCCCC3)c1", "Potency": "inconclusive: 50.1 µM [inhibitor, partial curve]"},
      {"compound": "COc1cc(OC)cc(C(=O)NC(=S)Nc2ccc(Cl)c(C(=O)O)c2)c1", "Potency": "active: 89.1 µM"},
      {"compound": "COc1ccc(-c2cc(=O)oc3cc(OCC(=O)NCc4ccccn4)ccc23)cc1", "Potency": "inactive"},
      {"compound": "Cc1cc(OCC(O)CN2CCN(c3ccccn3)CC2)cc(C)c1Cl", "note": "(stereo unspecified)", "Potency": "inconclusive: 56.2 µM [inhibitor, partial curve]"},
      {"compound": "C/C(N)=C(/C#N)C(=O)CSc1nnc(Nc2cccc(C)c2)s1", "Potency": "active: 79.4 µM"},
      {"compound": "COc1ccc(OC)c2c(C)cc(N3CCN(C(=O)c4ccc(F)cc4)CC3)nc12", "Potency": "inconclusive: 56.2 µM [inhibitor, partial curve]"},
      {"compound": "Cc1cc(NC(=O)c2cncc(Br)c2)ccc1NC(=O)c1cc2ccccc2o1", "Potency": "inconclusive: 7.94 µM [inhibitor, partial curve]"},
      {"compound": "CCN1CCN(c2c(/C=C3\\SC(=S)N(Cc4ccco4)C3=O)c(C)c(C#N)c(=O)n2C)CC1", "Potency": "inconclusive: 28.2 µM [inhibitor, partial curve]"},
      {"compound": "COc1ccc(CC(=O)NNc2ncnc3c2cnn3C)cc1OC", "Potency": "inactive"},
      {"compound": "Cc1ccc(S(=O)(=O)NC2OC(=O)C(Cl)=C2Cl)cc1", "note": "(stereo unspecified)", "Potency": "inactive"},
      {"compound": "O=C1C(N2CCOCC2)=C(n2nnc3ccccc32)C(=O)c2ccccc21", "activity change, negative = inhibition": "inactive: -1.53% [at 11.4 µM]"},
      {"compound": "O=C(C1=C[C@@H](c2ccc3c(c2)OCO3)C[C@@H](OCCCCO)O1)N1CCN(Cc2ccc3c(c2)OCO3)CC1", "Potency": "inconclusive: 56.2 µM [inhibitor, partial curve]"},
      {"compound": "COc1ccc(C2=C(CC(=O)O)C(=O)CC2)cc1", "Potency": "inactive"},
      {"compound": "CSc1ccc(C2c3[nH]c4ccccc4c3CCN2C(=O)c2ccnn2C)cc1", "note": "(stereo unspecified)", "Potency": "inconclusive: 50.1 µM [inhibitor, partial curve]"},
      {"compound": "Cc1ccc2c(c1)CCCN2CC(=O)Nc1cc(S(=O)(=O)N2CCCC2)ccc1Cl", "Potency": "inconclusive: 31.6 µM [inhibitor, full curve]"},
      {"compound": "O=C(c1c(O)cc(O)cc1O)C1c2c(cc(O)c3c2O[C@H](c2ccc(O)cc2)[C@@H](O)C3)OC1c1ccc(O)cc1", "note": "(stereo partly specified)", "Potency": "inconclusive: 56.2 µM [inhibitor, partial curve]"},
      {"compound": "COc1ccccc1C(=O)NCCOc1ccc(C(C)(C)C)cc1", "Potency": "inactive"},
      {"compound": "O=C(Nc1ccc(Cl)cc1)c1cnn2c1NC(c1ccccc1)=CC2c1ccccc1", "note": "(stereo unspecified)", "Potency": "inconclusive: 44.7 µM [inhibitor, partial curve]"},
      {"compound": "Cc1cccc(C2c3[nH]c4ccccc4c3CCN2C(=O)c2nn(C)c(=O)c3ccccc23)n1", "note": "(stereo unspecified)", "Potency": "inconclusive: 17.8 µM [inhibitor, partial curve]"},
      {"compound": "C/C(=N/NC(=O)c1ccncc1)c1ccccc1", "Potency": "inconclusive: 35.5 µM [inhibitor, partial curve]"},
      {"compound": "Oc1c(N=NC(=S)Nc2ccccc2F)c2ccccc2n1Cc1ccc(Cl)cc1", "Potency": "inconclusive: 11.2 µM [inhibitor, full curve]"},
      {"compound": "Cn1c(SCC(=O)N/N=C/c2cc([N+](=O)[O-])ccc2O)nnc1-c1ccccc1", "Potency": "inconclusive: 56.2 µM [inhibitor, partial curve]"}
    ]}
  ]
}
